We go through 111 compounds from PubChem BioAssay AID488969 (Vanderbilt High Throughput Screening Facility, 2010).

Each structure is given as a SMILES string. Whole data set: some 110,000 compounds, median “z-score” near -0.1, cut for the highest 2% near 2. The list shows a part of the results.

For this assay, the target named is Metabotropic glutamate receptor 8 (Rattus norvegicus) (UniProt P70579). As to the kind of experiment: rat mGluR8 modulators via GIRK flux, primary screen, cell-based, thallium flux, HTS (AID 488969). The note with it: HEK293 rat mGluR8, GIRK (G protein-gated inwardly rectifying potassium channel) thallium flux, FluoZin2; at 10 µM; stronger effect = higher value; submaximal glutamate (EC20) added with thallium.
Chain of UniProt P70579 (P70579 whole entry, looked up): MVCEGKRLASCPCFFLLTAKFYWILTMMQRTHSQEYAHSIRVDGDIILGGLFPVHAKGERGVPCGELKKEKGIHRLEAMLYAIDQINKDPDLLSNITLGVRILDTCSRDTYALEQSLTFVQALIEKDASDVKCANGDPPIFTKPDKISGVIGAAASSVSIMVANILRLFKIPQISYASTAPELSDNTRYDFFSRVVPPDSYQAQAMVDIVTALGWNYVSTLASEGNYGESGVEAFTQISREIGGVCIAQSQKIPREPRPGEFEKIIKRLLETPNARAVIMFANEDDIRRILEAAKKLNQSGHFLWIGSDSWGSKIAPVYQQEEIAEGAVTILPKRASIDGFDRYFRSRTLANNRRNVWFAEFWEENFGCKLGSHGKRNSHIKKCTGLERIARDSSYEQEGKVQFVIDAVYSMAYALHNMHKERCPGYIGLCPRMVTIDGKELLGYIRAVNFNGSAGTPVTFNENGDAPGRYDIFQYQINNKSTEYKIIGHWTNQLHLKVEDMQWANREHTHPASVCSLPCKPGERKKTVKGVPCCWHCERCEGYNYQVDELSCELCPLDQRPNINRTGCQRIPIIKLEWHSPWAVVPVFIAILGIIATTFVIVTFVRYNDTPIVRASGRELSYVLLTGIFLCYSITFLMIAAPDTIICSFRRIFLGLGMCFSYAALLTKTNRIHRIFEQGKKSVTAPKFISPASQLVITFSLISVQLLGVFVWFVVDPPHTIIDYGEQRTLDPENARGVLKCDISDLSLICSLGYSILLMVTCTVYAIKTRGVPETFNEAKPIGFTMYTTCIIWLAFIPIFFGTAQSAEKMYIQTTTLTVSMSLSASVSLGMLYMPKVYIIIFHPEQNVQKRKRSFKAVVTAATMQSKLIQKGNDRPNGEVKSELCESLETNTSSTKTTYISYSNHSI
`COc1cccc2c1OC1(C)CC2N(C(=O)c2ccco2)C(=S)N1c1ccc(F)cc1` (stereo unspecified): the z-score was -0.086. Under `COc1ccc(NC(=O)CCc2nc(-c3ccc(C)cc3)no2)c(OC)c1` stands 0.634; under `O=C(COC(=O)c1ccncc1)Nc1cc(Cl)c(Cl)cc1Cl`, 0.0314; under `COc1cc2c(cc1OC)CN(C(=O)c1cccs1)CC2`, 0.142. The compound `CCC(=O)Nc1c(S(=O)(=O)c2ccc(C)cc2)c2nc3ccccc3nc2n1C(C)c1ccccc1` (stereo unspecified) registered a z-score of -0.22. The value for `CCOC(=O)C1CCN(c2c(N3CCCCCC3)c(=O)c2=O)CC1` was 0.444; that for `COC(=O)c1ccc(CN2C(=O)NC3(CCC(C)CC3)C2=O)o1` (stereo unspecified) was 0.988. The value for `CC1CC1c1ccc(/C=C(\C#N)C(=O)Nc2ccc(Cl)cc2Cl)o1` (stereo unspecified) was -0.0179; that for `Cc1nc(NC(=O)c2cc3c(s2)CCCCC3)sc1C(=O)N(C)C` was -0.848. On to `COc1ccc(CCNc2oc(Cc3cccc4ccccc34)nc2C#N)cc1OC`, for which the z-score amounted to 0.0449. Under `Cc1ccc(S(=O)(=O)N/N=C/c2c(C)nn(-c3ccccc3)c2C)cc1` stands -0.215; under `Cc1nc2cc(C(=O)OCC(=O)N(CC(C)C)C3CCS(=O)(=O)C3)ccc2n1-c1ccccc1` (stereo unspecified), -0.459; under `CCOC(=O)N1CCN(C(=O)Nc2ccc3oc(C)nc3c2)CC1`, -0.0428.

Compound `CCCc1nc(NCc2ccccn2)c2nnn(Cc3ccccc3F)c2n1` had a z-score of -0.45. The value for `COc1ccc(OCC(O)CN2C(=O)NC(C)(C)C2=O)cc1` (stereo unspecified) was -0.716.

`O=C(Oc1c(Cl)cc(Cl)c2cccnc12)c1cccs1` yielded a z-score of 2.7.

`COc1ccc(C(C(=O)NC2CCCCC2)N(C(=O)c2sc(C)nc2C)c2ccc(C(C)=O)cc2)cc1` (stereo unspecified) registered a z-score of 0.0467. Under `Cn1nc(-c2ccccc2)c(CSc2ccccc2Cl)c1Cl` stands -0.141; under `NC(=O)c1ccccc1N/C=C/C(=O)c1ccccc1`, 0.167; under `COc1ccc(C2(C(=O)Nc3ccc(S(=O)(=O)Nc4nc(C)cc(C)n4)cc3)CCCC2)cc1OC`, -0.623. Under `COc1ccc(C(=O)CSc2nnc(CN3CCCCC3)n2-c2ccc(F)cc2)cc1` stands 0.202. The value for `Cc1cc(C)nc(N2CCC(C(=O)NCc3cccs3)CC2)n1` was 0.392; that for `Cc1ccc(S(=O)(=O)Oc2ccc(C3C4=C(CCCC4=O)OC4=C3C(=O)CCC4)cc2)cc1` was -0.134. `C=CCSC1=C(C#N)C(c2ccc(C(C)C)cc2)CC(=O)N1` (stereo unspecified) came in with a z-score of 0.801.

Regarding `CCOc1cccc(/C(O)=C2/C(=O)C(=O)N(Cc3ccco3)C2c2ccncc2)c1` (stereo unspecified), the z-score was -0.185. The value for `CCn1ncc(Cl)c1C(=O)Nc1ccncc1` was -0.171; that for `Cc1ccc(-c2n[nH]c(=S)n2/N=C/C=C\c2ccccc2[N+](=O)[O-])cc1` was 0.22. `COCCNC(=O)C1CC(c2cccc([N+](=O)[O-])c2)=NO1` (stereo unspecified) yielded a z-score of 0.0419. Take `CC(=O)c1cc2c(cc1NC(=O)c1c(-c3ccccc3)noc1C)OCO2`: the z-score was -0.49. Under `Cc1ccc(N(CC(O)Cn2c3ccccc3c3ccccc32)S(C)(=O)=O)c(C)c1` (stereo unspecified) stands -0.0609; under `O=C(COC(=O)c1sc2ccccc2c1Cl)NCC1CCCCC1`, -0.194. The value for `CCOC(=O)CCc1c(C)c2ccc(OCc3cc([N+](=O)[O-])ccc3OC)cc2oc1=O` was 0.15; that for `CC(C)(C)n1nnnc1CN1CCN(C2CCCC2)CC1` was -0.495; that for `O=C(O)c1cc(Cl)ccc1NC(=O)C1CCCO1` (stereo unspecified) was -0.0571.

With `O=C(CNC(=O)c1ccc([N+](=O)[O-])cc1)N/N=C\c1ccc(OC(=O)c2ccccc2)cc1`, the z-score is 0.0901. The value for `O=C(Cc1ccc(Cl)cc1)NCCCn1ccnc1` was -0.134; that for `CCC(C)c1ccc(OCCN2CCCC2)cc1` (stereo unspecified) was 0.208. Under `O=C(CN1C(=O)C2CC=CCC2C1=O)NCc1ccc2c(c1)OCO2` (stereo unspecified) stands -0.142; under `Cn1c(=O)c2[nH]c(CN3CCN(Cc4ccccc4)CC3)nc2n(C)c1=O`, -0.0138. Under `O=C(NCC1CCCO1)c1ccc(NC(=O)C2CCCCC2C(=O)O)cc1` (stereo unspecified) stands 0.533; under `Brc1ccc2c(c1)C(c1ccc(N3CCOCC3)cc1)=NNC(c1cccs1)=N2`, -0.0732.

As to `COc1ccccc1OC(=O)C1CC(=O)N(c2ccc(Cl)cc2)C1` (stereo unspecified), the z-score is -1.67. Turning to `O=C(NCc1ccncc1)c1cccc(Cn2cc(Br)cn2)c1`, the z-score is -0.499.

`CCCc1cc(=O)[nH]c(SCCOc2ccc(Cl)cc2)n1` returned a z-score of 0.253. In turn, `O=C(O)c1cc(NC(=O)C2CCCO2)cc(NC(=O)C2CCCO2)c1` (stereo unspecified) yielded a z-score of -0.51.

For the compound `O=C1c2ccccc2C(=O)N1Cc1cc(-c2ccccc2)no1`, the z-score is -0.334. Consider `CCN1CCN(C2=NC(=O)/C(=C/c3ccc(C)o3)S2)CC1`, for which the z-score turned out to be 0.0216. The value for `C(=N/N1CCN(c2ccccc2)CC1)/c1cccs1` was -0.201; that for `O=C(O)[C@H]1CCCC[C@H]1C(=O)NCCc1ccccc1` was 0.402; that for `COc1ccc(OC)c(NC(=O)C(=O)NCc2ccncc2)c1` was -0.232. The value for `Cc1cccc(CSc2ccc3nnc(-c4cccs4)n3n2)c1` was -0.315; that for `Cc1ccc2sc(C)[n+](CCC(C)S(=O)(=O)[O-])c2c1` (stereo unspecified) was -0.433; that for `O=C(CC(=O)c1ccccc1)Nc1cccnc1Cl` was -0.127.

In turn, `COC(=O)Cn1cccc1C(=O)c1ccccc1` registered a z-score of 0.887. The value for `CCc1ccc(NC(=O)CCN2C(=O)c3cccnc3C2=O)cc1` was 0.184; that for `CCC(CC)C(=O)NCCCCc1ccccc1` was -0.508; that for `CC1CCCCC1NC(=O)NC(=O)CCl` (stereo unspecified) was 0.0149. The value for `CC1(C)CCCC(C)(C)N1CC(O)COCCOc1ccc(Br)cc1` (stereo unspecified) was 1.04. Under `CCCNc1nc(N2CCOCC2)nc(N2CCOCC2)n1` stands -0.0765. `O=C(CSc1ccc(-c2ccccc2)nn1)N1CCN(c2ccccc2)CC1` returned a z-score of -0.171.

Take `COc1ccccc1CNC(=O)c1cccc(C)c1[N+](=O)[O-]`: the z-score is -0.24. The value for `OC(COc1ccc2ccccc2c1)Cn1cncn1` (stereo unspecified) was 0.189.

Compound `COc1cccc(-n2nc(C(=O)N3CC(C)CC(C)C3)c3ccccc3c2=O)c1` (stereo unspecified) showed a z-score of -0.198. `Cc1ccc(-c2nc(NC(=O)CSc3nnc(C)s3)ns2)cc1` registered a z-score of -0.118. Under `CCOC(=O)N1CCN(C(=O)c2cc(Cl)c(Cl)cc2C(=O)O)CC1` stands -0.119. The value for `CCn1c(-c2cccnc2)n[nH]c1=S` was -0.235; that for `COc1cccc(-c2csc(N3CCN(C(=S)Nc4ccccc4)CC3)n2)c1` was 0.146; that for `COc1ccc(CN(C(=O)CSc2nnc(-c3ccccc3F)o2)c2ccc(F)cc2)cc1` was -0.681. Under `O=C(C1CCCN(c2nnc(-n3cccc3)s2)C1)N1CCN(c2ccccc2)CC1` (stereo unspecified) stands -0.457; under `CC(C)(C)S(=O)(=O)c1ccc(S(=O)(=O)C(C)(C)C)s1`, 2.32. Take `COc1ccc(OC)c(C2C(C(=O)c3sc(C)nc3C)=C(O)C(=O)N2CCN2CCOCC2)c1` (stereo unspecified): the z-score was -0.441.

As for `CCCSc1nc(C)cc(C)c1C(N)=O`, the z-score came out at 0.484. Under `CN1CCN(S(=O)(=O)c2ccc(N3CCN(S(=O)(=O)c4cccs4)CC3)nc2)CC1` stands 0.377; under `CCOc1ccc(-c2csc(C3COc4ccccc4O3)n2)cc1` (stereo unspecified), -0.23; under `Cc1cccc(C2(c3cccc(C)c3)OC(=O)c3ccccc32)c1`, 0.252. Under `COc1ccc(Cl)cc1N(C)C(=O)CCc1nc(-c2ccc(C)cc2)no1` stands 0.139; under `COc1ccc(Cl)cc1C(=O)Nc1ccc(S(=O)(=O)N2CCCC2)cc1`, -0.163; under `CCCCNCc1cc(Cl)c(OCCC)c(OCC)c1`, 1.14. The value for `CCC(c1nnnn1Cc1ccco1)N(CCN1CCOCC1)Cc1cc2cc(C)ccc2[nH]c1=O` (stereo unspecified) was -0.764.

Consider `CN(c1cccc(NC(=O)Nc2cccc(Cl)c2)c1)S(C)(=O)=O`, for which the z-score is -1.05. Under `Cc1ccc(OCCCN2CCOCC2)c([N+](=O)[O-])c1` stands -0.202. `Cn1c(=O)c2c(nc(NCCc3ccccc3)n2Cc2ccc(F)cc2)n(C)c1=O` registered a z-score of -0.233. Under `COc1cc2cc(C(N)=O)c(N)nc2cc1OC` stands -0.0702; under `COc1ccc(S(=O)(=O)Nc2cc3c4c(oc3c3ccccc23)CCCC4=O)cc1`, -0.141; under `Cc1c(NC(=O)c2c(F)cccc2F)c(=O)n(-c2ccccc2)n1C`, -0.117.

`CCc1ccc(NC(=O)Cc2ccc(OC)cc2)cc1` showed a z-score of -0.203. The value for `Cc1ccccc1OCC(O)CN1CCN(CCN2C(=O)c3cccc4cccc(c34)C2=O)CC1` (stereo unspecified) was 0.843; that for `C/C(=N\NC(=O)CSCc1cccc(Br)c1)c1ccc([N+](=O)[O-])cc1` was 0.0921; that for `COc1ccc(C)cc1NC(=O)CCCN1C(=S)NC(C)(C)CC1C` (stereo unspecified) was -0.595.

Regarding `CCOC(=O)c1cnc(SC)nc1Nc1cccc2ccccc12`, the z-score was -0.0786. Under `CN(Cc1nc(-c2ccccn2)no1)S(=O)(=O)c1ccccc1` stands 0.122; under `CCCc1[nH]c(=O)c(C#N)c2c1COC(C)(C)C2`, 0.352. On to `Cn1nnnc1SCC(=O)N1CCN(C(c2ccccc2)c2ccccc2)CC1`, for which the z-score is -0.46.

As to `CC(CNC(=O)COc1ccccc1)OC(=O)Nc1cccc(Cl)c1` (stereo unspecified), the z-score is -0.268. The value for `COc1cccc(Cn2nnc(C(=O)NCCc3ccc(Cl)cc3)c2N)c1` was 0.0599. The value for `COc1cc(C(=O)OCC(=O)Nc2ccc(F)cc2F)cc(OC)c1OC` was 0.1. Under `O=C(COc1ccc(Cl)cc1)N(Cc1ccccc1)c1nc(-c2ccccc2)cs1` stands -0.0577. On to `CC(C)(C)SCCNC(=O)COc1ccccc1`, for which the z-score amounted to 0.707. The compound `O=C1C2CCCN2C(c2ccccc2F)N1c1ccc(F)cc1` (stereo unspecified) gave a z-score of -0.00798. Compound `CO/N=C(/CS(=O)c1ccc(Br)cc1)c1ccc(OC)cc1` (stereo unspecified) gave a z-score of -0.0555. With `COc1cc2nc(CN(CCC(C)C)Cc3nc4cc(OC)c(OC)cc4c(=O)[nH]3)[nH]c(=O)c2cc1OC`, the z-score is -0.253. `Cc1cc(NC(=O)C2(c3ccccc3)CCCC2)no1` displayed a z-score of -0.898. Under `CCOC(=O)c1cnc(Nc2nc3ccccc3o2)nc1CN1CCN(C)CC1` stands -0.276. Under `O=C(NCc1cccnc1)c1cc(-c2ccco2)on1` stands 0.308; under `O=c1c2ccccc2[nH]c(=S)n1CCCN1CCOCC1`, 0.0674; under `O=C(CSc1nnnn1-c1ccccc1)N1CCc2ccccc2C1`, -0.487. In turn, `COc1cccc(N/C(SCc2ccccc2F)=C(/C#N)C(=O)NCc2cccs2)c1` registered a z-score of -0.192. Under `CCN(C1CCCCC1)S(=O)(=O)c1cc(C)ccc1OC` stands -0.44; under `CCCC(=O)NNc1c2ccccc2nc2ccccc12`, -0.0977; under `COc1cc(C)ccc1OCCCOc1ccccc1Cl`, -0.109.

The compound `COc1cccc(-n2c(Cc3cc(=O)[nH]c(=O)[nH]3)nnc2SCC(=O)N2CCC(C)CC2)c1` had a z-score of -0.226.
